Measured values from PubChem BioAssay AID588342 (National Center for Advancing Translational Sciences (NCATS), 2011).
Hit rate of the full screen: of about 360,000 compounds, about 25,000 (6.9%) were called active. This list was built around the results that the source calls inconclusive (neither active nor inactive); the mix of calls is not that of the screen. The call rests on the fitted dose curve; in most records, active means well fitted inhibition curve with a large enough effect; inconclusive means small, poorly fitted or top-dose-only effect; inactive means flat fitted curve, though single readings scatter. Potencies of inconclusive entries are doubtful fits and often do not repeat.

target: Luciferin 4-monooxygenase (Photinus pyralis) (UniProt P08659); assay: qHTS profiling assay for firefly luciferase inhibitor/activator using purifed enzyme and Km concentrations of substrates (counterscreen for miR-21 project); settings: purified FLuc, luminescence inhibition; series mostly up to 57.5 µM; further: nearly all actives have a fitted effect of over 55% in size
How it was run: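 Purified P. pyralis luciferase (10nM final) with 10uM D-luciferin and 10uM ATP (Km levels) in 50mM Tris acetate pH 7.5, 10mM Mg acetate, 0.01% Tween-20, 0.05% BSA; qHTS 6-point titration, ~60 µM downward; luminescence read.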
Potency means the concentration at half of the fitted maximal effect; tags describe the fitted curve by direction and shape.

Sequence of UniProt P08659 (P08659 whole entry, looked up): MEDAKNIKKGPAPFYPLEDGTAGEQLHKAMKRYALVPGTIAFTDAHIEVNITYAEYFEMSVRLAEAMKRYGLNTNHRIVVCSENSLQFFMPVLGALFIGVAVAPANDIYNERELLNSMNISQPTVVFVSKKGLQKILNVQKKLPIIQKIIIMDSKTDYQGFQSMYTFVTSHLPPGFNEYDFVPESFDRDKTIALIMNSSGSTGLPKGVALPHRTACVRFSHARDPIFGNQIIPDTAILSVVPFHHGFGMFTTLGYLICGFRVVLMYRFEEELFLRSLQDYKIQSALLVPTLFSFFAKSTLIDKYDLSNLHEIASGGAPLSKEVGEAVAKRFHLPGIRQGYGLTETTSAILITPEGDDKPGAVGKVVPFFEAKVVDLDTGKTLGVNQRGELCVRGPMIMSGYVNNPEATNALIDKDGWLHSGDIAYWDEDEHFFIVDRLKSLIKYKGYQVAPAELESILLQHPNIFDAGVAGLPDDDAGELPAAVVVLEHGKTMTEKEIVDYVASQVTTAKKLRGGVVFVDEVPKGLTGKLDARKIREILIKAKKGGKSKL

| SMILES | Potency |
| --- | --- |
| COc1ccc(-c2nnc(SC(C)C#N)o2)cc1 (stereo unspecified) | inconclusive: 19 µM [inhibitor, partial curve] |
| COc1cc(C(=O)NNc2nc3cc4c(cc3s2)OCO4)cc(OC)c1OC | inconclusive: 16.9 µM [inhibitor, partial curve] |
| C=CCn1c(SCc2ccc(C(=O)Nc3nccs3)cc2)nnc1-c1ccc(C)c(Cl)c1 | active: 10.7 µM |
| Cc1cccc(NC(=O)Nc2ccc(F)cc2)n1 | active: 8.49 µM |
| COc1ccc2c(Cl)c(C(=O)N/N=C/c3cccnc3)sc2c1 | inconclusive: 6.75 µM [inhibitor, full curve] |
| O=c1[nH]c2cccnc2n(CCNc2ncc(C(F)(F)F)cc2Cl)c1=O | inconclusive: 37.9 µM [inhibitor, partial curve, poor fit] |
| CCc1ccc(CNc2ccc3c(c2)ncn3CC)cc1 | active: 10.7 µM |
| COc1ccc(-c2noc(N3CCC(C(=O)N4CCN(c5ccccc5OC)CC4)CC3)n2)cc1 | inconclusive: 23.9 µM [inhibitor, partial curve] |
| Clc1ccc(-c2csc(Nc3cccnc3)n2)cc1 | inactive |
| Cc1ccc(/C=C/C(=O)Nc2ccccc2C(N)=O)cc1 | active: 0.849 µM |
| CCOc1cccc(Nc2nn(-c3ccc(OC(F)(F)F)cc3)nc2C(C)=O)c1 | inactive |
| O=C1c2ccccc2C(Nc2ccc3c(c2)OCCO3)N1Cc1ccc2c(c1)OCO2 (stereo unspecified) | inconclusive: 21.3 µM [inhibitor, single point] |
| COc1ccc(-c2nc3ccccc3s2)cc1O | active: 0.151 µM |
| Cc1sc2nc(CC(=O)N3CCCC3)[nH]c(=O)c2c1C | inconclusive: 0.849 µM [inhibitor, partial curve, poor fit] |
| CCOC(=O)c1cnc2c(C)c(Cl)ccc2c1NCCc1ccc(OC)c(OC)c1 | inactive |
| Cc1cc(C)nc(SCC(=O)N/N=C/c2cc(C)n(-c3ccccc3C)c2C)n1 | active: 16.9 µM |
| CCOc1ccccc1CNC(=O)Cc1ccc(NC(=O)N2CCCCc3ccccc32)cc1 | inconclusive: 21.3 µM [inhibitor, partial curve, poor fit] |
| CCOc1ccc(NC(=O)CSc2nc3ccsc3c(=O)n2C(C)CC)cc1 (stereo unspecified) | inactive |
| CN(C)c1ccc(C(=O)Nc2ccc(CN3CCS(=O)(=O)CC3)cc2)cc1 | active: 13.5 µM |
| CC(=O)c1ccc(OC(=O)C2c3ccccc3Oc3ccccc32)cc1 | inactive |
| C/C(Cn1nnc([N+](=O)[O-])n1)=N\NC(=O)c1ccc(O)cc1O | inconclusive: 19 µM [inhibitor, partial curve] |
